Measured values reported in patent publication US20250313546A1, “NUCLEIC ACID BINDERS” (UNIVERSITY OF STRATHCLYDE, priority 2022, published 2025).
Values after ≈ are worked out from the molar mass of the structure shown.

What was measured:
[1] = tested on: T. b. brucei Lister S427 (a drug-sensitive wild type); assay: Resazurin-based (Alamar blue) drug sensitivity assay; settings: for T.b. brucei Selectivity Indices (SI, IC50 (μM)/IC50 (μM)) Group / T.b. brucei Selectivity Index (SI, IC50 (μM)/IC50 (μM)), numeric value: cytotoxicity against HEK293 cells vs T.b. brucei; for IC50: Trypanosoma brucei, read-out: IC50 T.b. brucei
[2] = tested on: T. b. brucei B48 (a strain resistant to diamidines and melaminophenyl arsenicals); assay: as above; settings: Trypanosoma brucei, read-out: IC50 T.b. brucei B48
Experimental: A detailed description of the procedure for evaluating activity against trypanosomes, using an Alamar Blue (resazurin) assay, is described below.
The bloodstream form (BSF) T. b. brucei s427 (see De Koning, H. P. et al., Mol. Biochem. Parasitol. 2000, 106, 181-185), T. evansi AntTat 3/3 (see Dean, S. et al., Proc. Natl. Acad. Sci. USA, 2013, 110, 14741-14746), and T. equiperdum (see Stewart, M. L. et al., Eukaryot. Cell, 2010, 9, 336-343) were cultured in HMI-9 medium (Life Technologies, Paisley, United Kingdom) supplemented with 10% heat inactivated Foetal Bovine Serum (FBS (PAA Laboratories Linz, Austria)), 14 μL/L β-mercaptoethanol (BDH, Dorset, UK), and 3.0 g/L NaHCO3 (Sigma-Aldrich) and adjusted to pH 7.4. These cell lines were maintained at 37° C. in a humidified, 5% CO2 environment.
A resazurin-based (Alamar blue) drug sensitivity assay was used to assess and compare the activity of standard trypanocides in the different cell lines investigated (see Gould, M. K. et al., Anal. Biochem., 2008, 382, 87-93). Briefly, 23 doubling dilutions of the test compound of the invention, starting at 100 μM, and a compound-free control were prepared in 100 μL medium in a 96-well white plate (Greiner Bio-one, Frickenhausen, Germany). The cells were adjusted to 2×10^4 cells/mL for T. b. brucei and T. equiperdum; 4×10^4 cells/mL for T. evansi; and 5×10^5 cells/mL for T. congolense in the appropriate medium. 100 μL of the adjusted cells was then added to the wells containing drug dilutions and incubated for 48 h under respective culture condition. Thereafter, 20 μL of 125 mg/mL resazurin sodium dye was added, and the plate was incubated for a further 24 h. The resorufin fluorescence in each well of the plate was determined and used to calculate the Half maximal effective concentration (EC50) of the drug, as described in Carruthers, L. V. et al., Mol. Microbiol., 2021, 116, 564-588.

[3] = tested on: T congolense 6C3 (a diminazene resistant strain); assay: as above; settings: Trypanosoma congolense, read-out: IC50 T. congo C63
[4] = tested on: T. congolense IL3000 (a drug sensitive wild type); assay: as above; settings: Trypanosoma congolense, read-out: IC50 T. congo
[5] = tested on: A. fumigatus TR34/L98H (F10017, an azole resistant strain); settings: Aspergillus fumigatus, read-out: MIC99 A. fumigatus TR34/L98H
Experimental: The Minimum Inhibitory Concentration (MIC, at 99% inhibition) of the compounds was determined using the broth microdilution method as recommended by EUCAST (EUCAST Definitive Document E.DEF 9.3.2, Method for the determination of broth dilution minimum inhibitory concentrations of antifungal agents for conidia forming moulds and EUCAST Definitive Document E.DEF 7.3.2 Method for the determination of broth dilution minimum inhibitory concentrations of antifungal agents for yeasts).

| SMILES | T.b. brucei Selectivity Indices (SI, IC50 (μM)/IC50 (μM)) Group ([1]; Alkyl Amidines and NH Pyrroles) | IC50 [1] [µM] | T.b. brucei Selectivity Index (SI, IC50 (μM)/IC50 (μM)), numeric value [1] | IC50 [2] [µM] | IC50 [3] [µM] | IC50 [4] [µM] | MIC99 [5] [µg/mL] | T.b. brucei Selectivity Indices (SI, IC50 (μM)/IC50 (μM)) Group ([1]; Quaternary ammoniums) | T.b. brucei Selectivity Indices (SI, IC50 (μM)/IC50 (μM)) Group ([1]; Amides) |
| --- | --- | --- | --- | --- | --- | --- | --- | --- | --- |
| O=C(Nc1c[nH]c(C(=O)Nc2c[nH]c(C(=O)NCCN3CCOCC3)c2)c1)c1ccc(/C=C/c2ccc3nonc3c2)cc1 [IIIb6, (E)-4-(4-(2-(benzo[c][1,2,5]oxadiazol-5-yl)vinyl)benzamido)-N-(5-((2-morpholinoethyl)carbamoyl)-1H-pyrrol-3-yl)-1H-pyrrole-2-carboxamide] | D (Group D: SI > 300) | 0.05 to 0.25 | 366 | > 1 | > 1 | > 1 |  |  |  |
| Cn1cc(NC(=O)c2cc(NC(=O)c3ccc(/C=C/c4ccc5nonc5c4)cc3)c[nH]2)cc1C(=O)NCCN1CCOCC1 [IIIb9, (E)-4-(4-(4-(2-(benzo[c][1,2,5]oxadiazol-5-yl)vinyl)benzamido)-1H-pyrrole-2-carboxamido)-1-methyl-N-(2-morpholinoethyl)-1H-pyrrole-2-carboxamide] |  | < 0.05 |  | 0.05 to 0.25 | > 1 | > 1 |  |  |  |
| Cn1cc(NC(=O)c2ccc(/C=C/c3cnc4ccccc4c3)cc2)cc1C(=O)Nc1c[nH]c(C(=O)NCCN2CCOCC2)c1 [IIIb4, (E)-1-methyl-N-(5-((2-morpholinoethyl)carbamoyl)-1H-pyrrol-3-yl)-4-(4-(2-(quinolin-3-yl)vinyl)benzamido)-1H-pyrrole-2-carboxamide] |  | 0.05 to 0.25 |  | 0.05 to 0.25 | > 1 | > 1 |  |  |  |
| Cn1cc(NC(=O)c2ccc(/C=C/c3cnc4ccccc4c3)cc2)cc1C(=O)Nc1c[nH]c(C(=O)NCCC(=N)N)c1 [IIIa2, (E)-N-(5-((3-amino-3-iminopropyl)carbamoyl)-1H-pyrrol-3-yl)-1-methyl-4-(4-(2-(quinolin-3-yl)vinyl)benzamido)-1H-pyrrole-2-carboxamide] | D (Group D: SI > 300) | 0.05 to 0.25 | 600 | 0.05 to 0.25 | 0.25 to 1 | 0.25 to 1 | 5 to 25 (≈ 8.7 to 43.5 µM) |  |  |
| CCCCCCCCCC[N+](C)(C)CCNC(=O)c1cc(NC(=O)c2cc(NC(=O)c3ccc(/C=C/c4cnc5ccccc5c4)cc3)cn2C)cn1C [Ic9, (E)-N,N-dimethyl-N-(2-(1-methyl-4-(1-methyl-4-(4-(2-(quinolin-3-yl)vinyl)benzamido)-1H-pyrrole-2-carboxamido)-1H-pyrrole-2-carboxamido)ethyl)decan-1-aminium] |  | 0.05 to 0.25 | 131 | 0.05 to 0.25 | 0.05 to 0.25 | 0.05 to 0.25 | > 50 | D (Group D: SI > 120) |  |
| N=C(N)CCNC(=O)c1cc(NC(=O)c2cc(NC(=O)c3ccc(/C=C/c4ccc5nonc5c4)cc3)c[nH]2)c[nH]1 [IIIa8, (E)-N-(3-amino-3-iminopropyl)-4-(4-(4-(2-(benzo[c][1,2,5]oxadiazol-5-yl)vinyl)benzamido)-1H-pyrrole-2-carboxamido)-1H-pyrrole-2-carboxamide] | D (Group D: SI > 300) | < 0.05 | 3492 | 0.05 to 0.25 | 0.25 to 1 | 0.25 to 1 | > 50 |  |  |
| Cn1cc(NC(=O)c2cc(NC(=O)c3ccc(/C=C/c4cnc5ccccc5c4)cc3)c[nH]2)cc1C(=O)NCCN1CCOCC1 [IIIb8, (E)-1-methyl-N-(2-morpholinoethyl)-4-(4-(4-(2-(quinolin-3-yl)vinyl)benzamido)-1H-pyrrole-2-carboxamido)-1H-pyrrole-2-carboxamide] |  | < 0.05 |  | < 0.05 | 0.25 to 1 | 0.25 to 1 |  |  |  |
| Cn1cc(NC(=O)c2ccc(/C=C/c3ccc4nonc4c3)cc2)cc1C(=O)Nc1c[nH]c(C(=O)NCCN2CCOCC2)c1 [IIIb1, (E)-4-(4-(2-(benzo[c][1,2,5]oxadiazol-5-yl)vinyl)benzamido)-1-methyl-N-(5-((2-morpholinoethyl)carbamoyl)-1H-pyrrol-3-yl)-1H-pyrrole-2-carboxamide] |  | 0.25 to 1 |  | 0.05 to 0.25 | > 1 | > 1 |  |  |  |
| CNC(=O)c1cc(NC(=O)c2cc(NC(=O)c3ccc(/C=C/c4cnc5ccccc5c4)cc3)cn2C)cn1C [IVa2, (E)-N,1-dimethyl-4-(1-methyl-4-(4-(2-(quinolin-3-yl)vinyl)benzamido)-1H-pyrrole-2-carboxamido)-1H-pyrrole-2-carboxamide] |  | 0.25 to 1 | 5 | 0.25 to 1 | > 1 | > 1 |  |  | D (Group D: SI > 3) |
| CN(C)c1ccc(/C=C/c2ccc(C(=O)Nc3cc(C(=O)Nc4c[nH]c(C(=O)NCCC(=N)N)c4)n(C)c3)cn2)cc1 [IIIa7, (E)-N-(5-((5-((3-amino-3-iminopropyl)carbamoyl)-1H-pyrrol-3-yl)carbamoyl)-1-methyl-1H-pyrrol-3-yl)-6-(4-(dimethylamino)styryl)nicotinamide] |  | > 1 |  | > 1 | 0.25 to 1 | 0.25 to 1 | 5 to 25 (≈ 8.81 to 44 µM) |  |  |
| Cn1cc(NC(=O)c2cc(NC(=O)c3ccc(/C=C/c4cnc5ccccc5c4)cc3)cn2C)cc1C(=O)NCCC1CCCCC1 [IVa3, (E)-N-(2-cyclohexylethyl)-1-methyl-4-(1-methyl-4-(4-(2-(quinolin-3-yl)vinyl)benzamido)-1H-pyrrole-2-carboxamido)-1H-pyrrole-2-carboxamide] |  | 0.25 to 1 | 23 | 0.25 to 1 | > 1 | > 1 |  |  | D (Group D: SI > 3) |
| CN(C)c1ccc(/C=C/c2ccc(C(=O)Nc3c[nH]c(C(=O)Nc4cc(C(=O)NCCC(=N)N)n(C)c4)c3)cn2)cc1 [IIIa5, (E)-N-(5-((5-((3-amino-3-iminopropyl)carbamoyl)-1-methyl-1H-pyrrol-3-yl)carbamoyl)-1H-pyrrol-3-yl)-6-(4-(dimethylamino)styryl)nicotinamide] | B (Group B: 70 < SI <= 150) | 0.25 to 1 |  | 0.25 to 1 |  | 0.25 to 1 | 5 to 25 (≈ 8.81 to 44 µM) |  |  |
| Cn1cc(NC(=O)c2cc(NC(=O)c3ccc(/C=C/c4cnc5ccccc5c4)cc3)cn2C)cc1C(N)=O [IVa1, (E)-N-(5-carbamoyl-1-methyl-1H-pyrrol-3-yl)-1-methyl-4-(4-(2-(quinolin-3-yl)vinyl)benzamido)-1H-pyrrole-2-carboxamide] |  | 0.25 to 1 |  | 0.25 to 1 | > 1 | > 1 |  |  | B (Group B: 0.7 < SI <= 1.5) |
| COc1ccc(/C=C/c2ccc(C(=O)Nc3cc(C(=O)Nc4cc(C(=O)NCCC(=N)NC(C)C)n(C)c4)n(C)c3)cn2)cc1 [Ia15, (E)-N-(5-((5-((3-imino-3-(isopropylamino)propyl)carbamoyl)-1-methyl-1H-pyrrol-3-yl)carbamoyl)-1-methyl-1H-pyrrol-3-yl)-6-(4-methoxystyryl)nicotinamide] | B (Group B: 70 < SI <= 150) | 0.25 to 1 |  | 0.25 to 1 | 0.05 to 0.25 | 0.05 to 0.25 |  |  |  |
| O=C(Nc1c[nH]c(C(=O)Nc2c[nH]c(C(=O)NCCN3CCOCC3)c2)c1)c1ccc(/C=C/c2cnc3ccccc3c2)cc1 [IIIb5, (E)-N-(2-morpholinoethyl)-4-(4-(4-(2-(quinolin-3-yl)vinyl)benzamido)-1H-pyrrole-2-carboxamido)-1H-pyrrole-2-carboxamide] |  | 0.05 to 0.25 |  | 0.05 to 0.25 | > 1 | > 1 |  |  |  |
